In publication PMC13434183:
Residue numbers refer to the chain shown, from its start. No constants are given. Whether binding was seen depends on the method and setting. In cells and extracts the contact can be indirect. Some results given as binding are weak or reduced against the parent protein; the word gives no strength.

T1: RIPK3^D143N (mouse, full-length) (mouse) (UniProt Q9QZL0)
T1 sequence: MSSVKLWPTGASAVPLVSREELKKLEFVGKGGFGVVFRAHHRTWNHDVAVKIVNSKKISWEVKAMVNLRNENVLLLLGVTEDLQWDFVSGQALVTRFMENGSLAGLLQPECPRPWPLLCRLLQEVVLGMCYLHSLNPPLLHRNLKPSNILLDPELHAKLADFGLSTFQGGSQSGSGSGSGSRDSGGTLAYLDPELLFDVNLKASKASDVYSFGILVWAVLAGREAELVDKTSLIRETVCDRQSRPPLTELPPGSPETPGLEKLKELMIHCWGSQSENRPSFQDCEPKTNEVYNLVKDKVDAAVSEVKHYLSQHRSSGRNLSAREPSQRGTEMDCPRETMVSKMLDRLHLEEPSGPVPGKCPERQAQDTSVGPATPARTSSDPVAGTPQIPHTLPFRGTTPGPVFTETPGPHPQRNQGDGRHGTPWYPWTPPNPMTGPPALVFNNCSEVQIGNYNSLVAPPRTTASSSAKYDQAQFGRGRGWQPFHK

T2: RIPK3^D161N (mouse, full-length) (mouse) (UniProt Q9QZL0)
T2 sequence: T1 sequence with N143D, D161N

T3: RIPK3^K51A (mouse, full-length) (mouse) (UniProt Q9QZL0)
T3 sequence: T1 sequence with K51A, N143D

B1: RIPK1, Q60855 1-656 (protein)
chain: MQPDMSLDNIKMASSDLLEKTDLDSGGFGKVSLCYHRSHGFVILKKVYTGPNRAEYNEVLLEEGKMMHRLRHSRVVKLLGIIIEEGNYSLVMEYMEKGNLMHVLKTQIDVPLSLKGRIIVEAIEGMCYLHDKGVIHKDLKPENILVDRDFHIKIADLGVASFKTWSKLTKEKDNKQKEVSSTTKKNNGGTLYYMAPEHLNDINAKPTEKSDVYSFGIVLWAIFAKKEPYENVICTEQFVICIKSGNRPNVEEILEYCPREIISLMERCWQAIPEDRPTFLGIEEEFRPFYLSHFEEYVEEDVASLKKEYPDQSPVLQRMFSLQHDCVPLPPSRSNSEQPGSLHSSQGLQMGPVEESWFSSSPEYPQDENDRSVQAKLQEEASYHAFGIFAEKQTKPQPRQNEAYNREEERKRRVSHDPFAQQRARENIKSAGARGHSDPSTTSRGIAVQQLSWPATQTVWNNGLYNQHGFGTTGTGVWYPPNLSQMYSTYKTPVPETNIPGSTPTMPYFSGPVADDLIKYTIFNSSGIQIGNHNYMDVGLNSQPPNNTCKEESTSRHQAIFDNTTSLTDEHLNPIRENLGRQWKNCARKLGFTESQIDEIDHDYERDGLKEKVYQMLQKWLMREGTKGATVGKLAQALHQCCRIDLLNHLIRASQS
B2: Caspase-8 (protein, UniProt O89110 1-480)
chain: MDFQSCLYAIAEELGSEDLAALKFLCLDYIPHKKQETIEDAQKLFLRLREKGMLEEGNLSFLKELLFHISRWDLLVNFLDCNREEMVRELRDPDNAQISPYRVMLFKLSEEVSELELRSFKFLLNNEIPKCKLEDDLSLLEIFVEMEKRTMLAENNLETLKSICDQVNKSLLGKIEDYERSSTERRMSLEGREELPPSVLDEMSLKMAELCDSPREQDSESRTSDKVYQMKNKPRGYCLIINNHDFSKAREDITQLRKMKDRKGTDCDKEALSKTFKELHFEIVSYDDCTANEIHEILEGYQSADHKNKDCFICCILSHGDKGVVYGTDGKEASIYDLTSYFTGSKCPSLSGKPKIFFIQACQGSNFQKGVPDEAGFEQQNHTLEVDSSSHKNYIPDEADFLLGMATVKNCVSYRDPVNGTWYIQSLCQSLRERCPQGDDILSILTGVNYDVSNKDDRRNKGKQMPQPTFTLRKKLFFPP

How the values were obtained:
Experiment in all cases: co-IP; FLAG-IP (anti-Flag magnetic beads, 90 min, 4 °C, after pre-clearing with anti-HA beads) of reconstituted RIPK3 from lysates of Ripk3-/- mouse dermal fibroblasts; 5 µM IDN-6556 ± 10 ng/mL doxycycline overnight, then TNF/Smac mimetic/IDN-6556 (TSI); lysis buffer 50 mM Tris-HCl pH 7.4, 1% Triton X-100, 150 mM NaCl; immunoblot
[1] = target: wild-type RIPK3 (mouse, full-length) (mouse), Q9QZL0; conditions: remark: other sources report otherwise
[2] = target: T1, RIPK3^D143N (mouse, full-length) (mouse)
[3] = target: T2, RIPK3^D161N (mouse, full-length) (mouse)
[4] = target: T3, RIPK3^K51A (mouse, full-length) (mouse)
[5] = target: wild-type RIPK3 (mouse, full-length) (mouse) (UniProt Q9QZL0)

Binder	binding [1]	binding [2]	binding [3]	binding [4]	binding [5]
B1	binds	–	–	–	–
B2	–	binds	no binding	no binding	binds
